From PMC5540273 (PLoS ONE, 2017)
For part of these data: The strong results were mostly taken out for another list; the other results follow. The list shows a part of the results, in another mix than the full data.

The molecules below were run on PLK3. Details: concentration: 1 μM,replicates: in singlicate; n = 1.
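Note: KINOMEscan kinase panel screen.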

Structure (SMILES)	%Inh
O=C1NC(=O)C(c2ccc(Cl)cc2)=C1Nc1ccc(O)c(Cl)c1 [SB-405367]	7%
O=C1NC(=O)C(c2ccc(Cl)cc2)=C1Nc1ccccc1 [SB-317661]	17%
COc1cccc(C2=C(Nc3ccc(SC)cc3)C(=O)NC2=O)c1 [SB-331032]	12%
Cc1ccc(C)c(Oc2nccc(-c3c(-c4ccc(F)cc4)ncn3C3CCNCC3)n2)c1.O=C(O)C(F)(F)F.O=C(O)C(F)(F)F.O=C(O)C(F)(F)F [SB-284852]	11%
O=C1NC(=O)C(c2ccccc2Cl)=C1Nc1cccc(C(=O)O)c1 [SB-390526]	0%
O=C1NC(=O)C(c2ccccc2)=C1Nc1cc(Cl)c(O)c(Cl)c1 [SB-390530]	13%
CSc1ccc(NC2=C(c3cccc(Cl)c3)C(=O)NC2=O)cc1 [SB-341528]	0%
O=C1NC(=O)c2c1c(-c1ccccc1)cc1[nH]c3ccc(O)cc3c21	89%
Cc1cc(C)cc(Oc2nccc(-c3c(-c4ccc(F)cc4)ncn3C3CCNCC3)n2)c1.O=C(O)C(F)(F)F.O=C(O)C(F)(F)F.O=C(O)C(F)(F)F [SB-284851]	0%
COc1ccc(C2=C(Nc3cccc(Cl)c3)C(=O)NC2=O)cc1 [SB-326892]	9%
O=C(O)c1ccc(-c2nc(-c3ccc(F)cc3)c(-c3ccncc3)[nH]2)cc1 [SB-202620]	21%
O=C1NC(=O)C(c2ccccc2)=C1Nc1ccc(Cl)c(C(=O)O)c1 [SB-390532]	0%
O=C1NC(=O)C(c2ccc(Cl)cc2)=C1Nc1cccc(C(=O)O)c1 [SB-360737]	1%
O=C1NC(=O)C(c2ccccc2Cl)=C1Nc1ccccc1 [SB-376715]	0%
CS(=O)(=O)c1ccccc1-c1nc(-c2ccc(F)cc2)c(-c2ccncc2)[nH]1 [SB-213663]	0%
O=C1NC(=O)C(c2ccc(Cl)cc2)=C1Nc1cccc(O)c1 [SB-333613]	11%

What follows are molecules tested on PLK4. Details: concentration: 1 μM,replicates: in singlicate; n = 1.

Structure (SMILES)	%Inh
O=C1NC(=O)C(c2ccc(Cl)cc2)=C1Nc1ccc(O)c(Cl)c1 [SB-405367]	2%
O=C1NC(=O)C(c2ccc(Cl)cc2)=C1Nc1ccccc1 [SB-317661]	0%
COc1cccc(C2=C(Nc3ccc(SC)cc3)C(=O)NC2=O)c1 [SB-331032]	19%
Cc1ccc(C)c(Oc2nccc(-c3c(-c4ccc(F)cc4)ncn3C3CCNCC3)n2)c1.O=C(O)C(F)(F)F.O=C(O)C(F)(F)F.O=C(O)C(F)(F)F [SB-284852]	0%
O=C1NC(=O)C(c2ccccc2Cl)=C1Nc1cccc(C(=O)O)c1 [SB-390526]	7%
O=C1NC(=O)C(c2ccccc2)=C1Nc1cc(Cl)c(O)c(Cl)c1 [SB-390530]	11%
CSc1ccc(NC2=C(c3cccc(Cl)c3)C(=O)NC2=O)cc1 [SB-341528]	0%
O=C1NC(=O)c2c1c(-c1ccccc1)cc1[nH]c3ccc(O)cc3c21	53%
Cc1cc(C)cc(Oc2nccc(-c3c(-c4ccc(F)cc4)ncn3C3CCNCC3)n2)c1.O=C(O)C(F)(F)F.O=C(O)C(F)(F)F.O=C(O)C(F)(F)F [SB-284851]	0%
COc1ccc(C2=C(Nc3cccc(Cl)c3)C(=O)NC2=O)cc1 [SB-326892]	0%
O=C(O)c1ccc(-c2nc(-c3ccc(F)cc3)c(-c3ccncc3)[nH]2)cc1 [SB-202620]	25%
O=C1NC(=O)C(c2ccccc2)=C1Nc1ccc(Cl)c(C(=O)O)c1 [SB-390532]	4%
O=C1NC(=O)C(c2ccc(Cl)cc2)=C1Nc1cccc(C(=O)O)c1 [SB-360737]	5%
O=C1NC(=O)C(c2ccccc2Cl)=C1Nc1ccccc1 [SB-376715]	19%
CS(=O)(=O)c1ccccc1-c1nc(-c2ccc(F)cc2)c(-c2ccncc2)[nH]1 [SB-213663]	11%
O=C1NC(=O)C(c2ccc(Cl)cc2)=C1Nc1cccc(O)c1 [SB-333613]	34%

The molecules below were run on PRKCD. Details: concentration: 1 μM,replicates: in singlicate; n = 1.

Structure (SMILES)	%Inh
O=C1NC(=O)C(c2ccc(Cl)cc2)=C1Nc1ccc(O)c(Cl)c1 [SB-405367]	38%
O=C1NC(=O)C(c2ccc(Cl)cc2)=C1Nc1ccccc1 [SB-317661]	7%
COc1cccc(C2=C(Nc3ccc(SC)cc3)C(=O)NC2=O)c1 [SB-331032]	12%
Cc1ccc(C)c(Oc2nccc(-c3c(-c4ccc(F)cc4)ncn3C3CCNCC3)n2)c1.O=C(O)C(F)(F)F.O=C(O)C(F)(F)F.O=C(O)C(F)(F)F [SB-284852]	14%
O=C1NC(=O)C(c2ccccc2Cl)=C1Nc1cccc(C(=O)O)c1 [SB-390526]	0%
O=C1NC(=O)C(c2ccccc2)=C1Nc1cc(Cl)c(O)c(Cl)c1 [SB-390530]	0%
CSc1ccc(NC2=C(c3cccc(Cl)c3)C(=O)NC2=O)cc1 [SB-341528]	16%
O=C1NC(=O)c2c1c(-c1ccccc1)cc1[nH]c3ccc(O)cc3c21	61%
Cc1cc(C)cc(Oc2nccc(-c3c(-c4ccc(F)cc4)ncn3C3CCNCC3)n2)c1.O=C(O)C(F)(F)F.O=C(O)C(F)(F)F.O=C(O)C(F)(F)F [SB-284851]	0%
COc1ccc(C2=C(Nc3cccc(Cl)c3)C(=O)NC2=O)cc1 [SB-326892]	29%
O=C(O)c1ccc(-c2nc(-c3ccc(F)cc3)c(-c3ccncc3)[nH]2)cc1 [SB-202620]	33%
O=C1NC(=O)C(c2ccccc2)=C1Nc1ccc(Cl)c(C(=O)O)c1 [SB-390532]	0%
O=C1NC(=O)C(c2ccc(Cl)cc2)=C1Nc1cccc(C(=O)O)c1 [SB-360737]	0%
O=C1NC(=O)C(c2ccccc2Cl)=C1Nc1ccccc1 [SB-376715]	0%
CS(=O)(=O)c1ccccc1-c1nc(-c2ccc(F)cc2)c(-c2ccncc2)[nH]1 [SB-213663]	0%
O=C1NC(=O)C(c2ccc(Cl)cc2)=C1Nc1cccc(O)c1 [SB-333613]	8%
